Measured values taken from patent publication US20090221532A1 (priority 2005, published 2009).
Read-outs that look alike come from different tables or passages of the source.

System: Patients undergoing elective colonoscopy
Details: for Time after start of procedure until mean Modified OAA/S scores fell below 2: FIG. 3; for Time to Procedure Start, Mean / Time to Procedure Start, Median: from first administration to start of colonoscopy; for Time to Fully Alert, Mean / Time to Fully Alert, Median / Time to Fully Recovered, Mean / Time to Fully Recovered, Median / Time to Ready for Discharge, Mean / Time to Ready for Discharge, Median: from withdrawal of colonoscope
[1] = Example 1B initial portion, patients between 75 and 80 kg dosed with 980 mg (28 mL)
[2] = Example 1B, 630/700 mg, 805 mg and 980-mg dose groups
[3] = Example 1B, initial bolus dose 805 mg
[4] = Example 1B, initial bolus dose 910 mg
[5] = Example 1B, initial bolus dose 980 mg
[6] = Example 1B, initial bolus dose 630/700 mg

Compound: CC(C)c1cccc(C(C)C)c1OCOP(=O)([O-])[O-].[Na+].[Na+] [propofol prodrug, O-phosphonooxymethyl propofol disodium salt]
- Adverse respiratory finding (oxygen saturation <90%) [1]: mild hypoxemia
- MOAA/S of more heavily sedated subjects [1]: < 2
- Time after start of procedure until mean Modified OAA/S scores fell below 2 (Example 1B, initial bolus dose of 805 mg): ≤ 6 min
- Time after start of procedure until mean Modified OAA/S scores fell below 2 (Example 1B, initial bolus dose of 980): ≤ 4 min
- Percent of time patients remained within Modified OAA/S scores of 2, 3, or 4 from procedure start to procedure end (Example 1B, FIG. 4B, 630/700 mg doses): 87.5%
- Percent of time spent at Modified OAA/S scores of 1 or 0 (Example 1B, FIG. 4B, initial bolus dose 805 mg): 31.0%
- Percent of time spent at Modified OAA/S scores of 1 or 0 (Example 1B, FIG. 4B, initial bolus dose 910 mg): 22.3%
- Percent of time spent at Modified OAA/S scores of 1 or 0 (Example 1B, FIG. 4B, initial bolus dose 980 mg): 31.5%
- Percent of time spent at Modified OAA/S scores of 1 or 0 (Example 1B, FIG. 4B, initial bolus dose 630/700 mg): 12.5%
- Percent of time patients remained within Modified OAA/S scores of 2, 3, or 4 from procedure start to procedure end, range (Example 1B, FIG. 4B, initial bolus doses of 805, 910, and 980 mg): 61.9% to 67.3%
- Mean Modified OAA/S scores during colonoscopy (Example 1B, 805 mg and 980 mg groups): below 2
- Median time to fully alert, range over dose groups [2]: 12.0 to 12.5 min
- Median time to fully recovered, range over dose groups [2]: 18.0 to 20.0 min
- Median time to ready for discharge, range over dose groups [2]: 35.0 to 37.0 min
- Percent of patients who required one supplemental dose to start the procedure (Example 1B, 805-mg group): 12.5%
- Percent of patients who required one supplemental dose to start the procedure (Example 1B, 910-mg group): 23.5%
- Number of Patients administered a total of 1 dose (initial plus supplemental) (Example 1B, All Patients): 38
- Number of Patients administered a total of 2 doses (initial plus supplemental) (Example 1B, All Patients): 14
- Number of Patients administered a total of 3 doses (initial plus supplemental) (Example 1B, All Patients): 6
- Number of Patients administered a total of 4 doses (initial plus supplemental) (Example 1B, All Patients): 4
- Number of Patients requiring 1 dose to allow start of procedure (Example 1B, All Patients): 56
- Number of Patients requiring 1 supplemental dose to maintain sedation throughout the procedure (Example 1B, All Patients): 15
- Number of Patients requiring 2 doses to allow start of procedure (Example 1B, All Patients): 6
- Number of Patients requiring 2 supplemental doses to maintain sedation throughout the procedure (Example 1B, All Patients): 7
- Number of Patients requiring 3 doses to allow start of procedure (Example 1B, All Patients): 0
- Number of Patients requiring 3 supplemental doses to maintain sedation throughout the procedure (Example 1B, All Patients): 1
- Number of Patients requiring 4 doses to allow start of procedure (Example 1B, All Patients): 0
- Number of Patients requiring 4 supplemental doses to maintain sedation throughout the procedure (Example 1B, All Patients): 0
- Time to Achieve Sedation (first Modified OAA/S score ≦4), Mean (Example 1B, All Patients): 2.7 min
- Time to Achieve Sedation (first Modified OAA/S score ≦4), Median (Example 1B, All Patients): 2.0 min
- Total Dose (mg) required during the entire procedure, Mean (Example 1B, All Patients): 982.8 mg
- Total Dose (mg) required during the entire procedure, Median (Example 1B, All Patients): 980.0 mg
- Time to Procedure Start, Mean (Example 1B, All Patients): 3.8 min
- Time to Procedure Start, Median (Example 1B, All Patients): 3.0 min
- Time to Fully Alert, Mean (Example 1B, All Patients): 12.5 min
- Time to Fully Alert, Median (Example 1B, All Patients): 12.0 min
- Time to Fully Recovered, Mean (Example 1B, All Patients): 22.1 min
- Time to Fully Recovered, Median (Example 1B, All Patients): 20.0 min
- Time to Ready for Discharge, Mean (Example 1B, All Patients): 40.3 min
- Time to Ready for Discharge, Median (Example 1B, All Patients): 35.5 min
- Percent of patients for whom the initial bolus dose was sufficient to start the procedure (Example 1B, all patients): 90.3%
- Percent of patients who required 1 supplemental dose to maintain sedation (Example 1B, all patients): 24.2%
- Percent of patients who required 2 supplemental doses to maintain sedation (Example 1B, all patients): 11.3%
- Percent of patients who required at least 1 supplemental dose to maintain sedation (Example 1B, all patients): 37.1%
- Percent of patients who required 3 supplemental doses to maintain sedation (Example 1B, all patients (one in the 910-mg group)): 1.6%
- Number of Patients administered a total of 1 dose (initial plus supplemental) [3]: 8
- Number of Patients administered a total of 2 doses (initial plus supplemental) [3]: 4
- Number of Patients administered a total of 3 doses (initial plus supplemental) [3]: 3
- Number of Patients administered a total of 4 doses (initial plus supplemental) [3]: 1
- Number of Patients requiring 1 dose to allow start of procedure [3]: 14
- Number of Patients requiring 1 supplemental dose to maintain sedation throughout the procedure [3]: 5
- Number of Patients requiring 2 doses to allow start of procedure [3]: 2
- Number of Patients requiring 2 supplemental doses to maintain sedation throughout the procedure [3]: 3
- Number of Patients requiring 3 doses to allow start of procedure [3]: 0
- Number of Patients requiring 3 supplemental doses to maintain sedation throughout the procedure [3]: 0
- Number of Patients requiring 4 doses to allow start of procedure [3]: 0
- Number of Patients requiring 4 supplemental doses to maintain sedation throughout the procedure [3]: 0
- Time to Achieve Sedation (first Modified OAA/S score ≦4), Mean [3]: 2.5 min
- Time to Achieve Sedation (first Modified OAA/S score ≦4), Median [3]: 2.0 min
- Total Dose (mg) required during the entire procedure, Mean [3]: 945.0 mg
- Total Dose (mg) required during the entire procedure, Median [3]: 875.0 mg
- Time to Procedure Start, Mean [3]: 3.6 min
- Time to Procedure Start, Median [3]: 3.0 min
- Time to Fully Alert, Mean [3]: 12.2 min
- Time to Fully Alert, Median [3]: 12.5 min
- Time to Fully Recovered, Mean [3]: 20.3 min
- Time to Fully Recovered, Median [3]: 18.0 min
- Time to Ready for Discharge, Mean [3]: 41.8 min
- Time to Ready for Discharge, Median [3]: 35.0 min
- Number of Patients administered a total of 1 dose (initial plus supplemental) [4]: 8
- Number of Patients administered a total of 2 doses (initial plus supplemental) [4]: 3
- Number of Patients administered a total of 3 doses (initial plus supplemental) [4]: 3
- Number of Patients administered a total of 4 doses (initial plus supplemental) [4]: 3
- Number of Patients requiring 1 dose to allow start of procedure [4]: 13
- Number of Patients requiring 1 supplemental dose to maintain sedation throughout the procedure [4]: 3
- Number of Patients requiring 2 doses to allow start of procedure [4]: 4
- Number of Patients requiring 2 supplemental doses to maintain sedation throughout the procedure [4]: 4
- Number of Patients requiring 3 doses to allow start of procedure [4]: 0
- Number of Patients requiring 3 supplemental doses to maintain sedation throughout the procedure [4]: 1
- Number of Patients requiring 4 doses to allow start of procedure [4]: 0
- Number of Patients requiring 4 supplemental doses to maintain sedation throughout the procedure [4]: 0
- Time to Achieve Sedation (first Modified OAA/S score ≦4), Mean [4]: 3.7 min
- Time to Achieve Sedation (first Modified OAA/S score ≦4), Median [4]: 3.0 min
- Total Dose (mg) required during the entire procedure, Mean [4]: 1093.2 mg
- Total Dose (mg) required during the entire procedure, Median [4]: 1085.0 mg
- Time to Procedure Start, Mean [4]: 5.2 min
- Time to Procedure Start, Median [4]: 4.0 min
- Time to Fully Alert, Mean [4]: 11.5 min
- Time to Fully Alert, Median [4]: 11.0 min
- Time to Fully Recovered, Mean [4]: 25.6 min
- Time to Fully Recovered, Median [4]: 21.0 min
- Time to Ready for Discharge, Mean [4]: 40.4 min
- Time to Ready for Discharge, Median [4]: 33.0 min
- Number of Patients administered a total of 1 dose (initial plus supplemental) [5]: 15
- Number of Patients administered a total of 2 doses (initial plus supplemental) [5]: 6
- Number of Patients administered a total of 3 doses (initial plus supplemental) [5]: 0
- Number of Patients administered a total of 4 doses (initial plus supplemental) [5]: 0
- Number of Patients requiring 1 dose to allow start of procedure [5]: 21
- Number of Patients requiring 1 supplemental dose to maintain sedation throughout the procedure [5]: 6
- Number of Patients requiring 2 doses to allow start of procedure [5]: 0
- Number of Patients requiring 2 supplemental doses to maintain sedation throughout the procedure [5]: 0
- Number of Patients requiring 3 doses to allow start of procedure [5]: 0
- Number of Patients requiring 3 supplemental doses to maintain sedation throughout the procedure [5]: 0
- Number of Patients requiring 4 doses to allow start of procedure [5]: 0
- Number of Patients requiring 4 supplemental doses to maintain sedation throughout the procedure [5]: 0
- Time to Achieve Sedation (first Modified OAA/S score ≦4), Mean [5]: 2.4 min
- Time to Achieve Sedation (first Modified OAA/S score ≦4), Median [5]: 2.0 min
- Total Dose (mg) required during the entire procedure, Mean [5]: 1030.0 mg
- Total Dose (mg) required during the entire procedure, Median [5]: 980.0 mg
- Time to Procedure Start, Mean [5]: 2.9 min
- Time to Procedure Start, Median [5]: 3.0 min
- Time to Fully Alert, Mean [5]: 13.7 min
- Time to Fully Alert, Median [5]: 12.0 min
- Time to Fully Recovered, Mean [5]: 21.5 min
- Time to Fully Recovered, Median [5]: 20.0 min
- Time to Ready for Discharge, Mean [5]: 39.5 min
- Time to Ready for Discharge, Median [5]: 37.0 min
- Number of Patients administered a total of 1 dose (initial plus supplemental) [6]: 7
- Number of Patients administered a total of 2 doses (initial plus supplemental) [6]: 1
- Number of Patients administered a total of 3 doses (initial plus supplemental) [6]: 0
- Number of Patients administered a total of 4 doses (initial plus supplemental) [6]: 0
- Number of Patients requiring 1 dose to allow start of procedure [6]: 8
- Number of Patients requiring 1 supplemental dose to maintain sedation throughout the procedure [6]: 1
- Number of Patients requiring 2 doses to allow start of procedure [6]: 0
- Number of Patients requiring 2 supplemental doses to maintain sedation throughout the procedure [6]: 0
- Number of Patients requiring 3 doses to allow start of procedure [6]: 0
- Number of Patients requiring 3 supplemental doses to maintain sedation throughout the procedure [6]: 0
- Number of Patients requiring 4 doses to allow start of procedure [6]: 0
- Number of Patients requiring 4 supplemental doses to maintain sedation throughout the procedure [6]: 0
- Time to Achieve Sedation (first Modified OAA/S score ≦4), Mean [6]: 1.8 min
- Time to Achieve Sedation (first Modified OAA/S score ≦4), Median [6]: 2.0 min
- Total Dose (mg) required during the entire procedure, Mean [6]: 700.0 mg
- Total Dose (mg) required during the entire procedure, Median [6]: 700.0 mg
- Time to Procedure Start, Mean [6]: 3.6 min
- Time to Procedure Start, Median [6]: 3.5 min
- Time to Fully Alert, Mean [6]: 12.5 min
- Time to Fully Alert, Median [6]: 12.5 min
- Time to Fully Recovered, Mean [6]: 20.0 min
- Time to Fully Recovered, Median [6]: 19.0 min
- Time to Ready for Discharge, Mean [6]: 39.4 min
- Time to Ready for Discharge, Median [6]: 36.5 min
- Time within which most patients achieved sedation (Example 1B, most patients): 2 to 3 min
- Number of patients who required ≦2 doses to initiate and maintain sedation to complete the procedure (Example 1B, of the 62 patients): 52
- Percent of patients who required ≦2 doses to initiate and maintain sedation to complete the procedure (Example 1B, of the 62 patients): 83.9%
- Patients who received alternative (rescue) medication and were considered treatment failures (Example 1B, of the 64 treated patients): two
